Substitutions are numbered along the chain they refer to; changes in the protein carry UniProt numbers. The list shows a part of the results.
T1: RBFOX1 RRM (Homo sapiens, UniProt Q9NWB1 109-208)
T1 sequence: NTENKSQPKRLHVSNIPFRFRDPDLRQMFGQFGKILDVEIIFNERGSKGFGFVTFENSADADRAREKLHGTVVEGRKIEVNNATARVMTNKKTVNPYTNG

B1: UUGCUUC (DNA:RNA)
RNA: GGGAGACCGGAAUUCAGAUUGUCCUUGCUUCUUAAAUCCCGUCGUAGCCACCA
DNA 1: CAATCTGAATTCCGGTCTCCC
DNA 2: TGGTGGCTACGACGGGATT
B2: CUGUGAG (DNA:RNA)
RNA: B1 RNA with U25C, C28U, U29G, U30A, C31G
DNA 1: CAATCTGAATTCCGGTCTCCC
DNA 2: TGGTGGCTACGACGGGATT
B3: GGCGAAU (DNA:RNA)
RNA: GGGAGACCGGAAUUCAGAUUGUCCGGCGAAUUUAAAUCCCGUCGUAGCCACCA
DNA 1: CAATCTGAATTCCGGTCTCCC
DNA 2: TGGTGGCTACGACGGGATT
B4: CUCGUUG (DNA:RNA)
RNA: B1 RNA with U25C, G27C, C28G, C31G
DNA 1: CAATCTGAATTCCGGTCTCCC
DNA 2: TGGTGGCTACGACGGGATT
B5: UUAAGCU (DNA:RNA)
RNA: B1 RNA with G27A, C28A, U29G, U30C, C31U
DNA 1: CAATCTGAATTCCGGTCTCCC
DNA 2: TGGTGGCTACGACGGGATT
B6: ACUCUCA (DNA:RNA)
RNA: B1 RNA with U25A, U26C, G27U, U30C, C31A
DNA 1: CAATCTGAATTCCGGTCTCCC
DNA 2: TGGTGGCTACGACGGGATT
B7: AGCUGGG (DNA:RNA)
RNA: B3 RNA with G25A, G28U, A29G, A30G, U31G
DNA 1: CAATCTGAATTCCGGTCTCCC
DNA 2: TGGTGGCTACGACGGGATT
B8: UAUCCGA (DNA:RNA)
RNA: B1 RNA with U26A, G27U, U29C, U30G, C31A
DNA 1: CAATCTGAATTCCGGTCTCCC
DNA 2: TGGTGGCTACGACGGGATT
B9: CUGUGCA (DNA:RNA)
RNA: B1 RNA with U25C, C28U, U29G, U30C, C31A
DNA 1: CAATCTGAATTCCGGTCTCCC
DNA 2: TGGTGGCTACGACGGGATT
B10: CAGUGUU (DNA:RNA)
RNA: B1 RNA with U25C, U26A, C28U, U29G, C31U
DNA 1: CAATCTGAATTCCGGTCTCCC
DNA 2: TGGTGGCTACGACGGGATT
B11: UGCCCUA (DNA:RNA)
RNA: B1 RNA with U26G, G27C, U29C, C31A
DNA 1: CAATCTGAATTCCGGTCTCCC
DNA 2: TGGTGGCTACGACGGGATT
B12: UUGCCUU (DNA:RNA)
RNA: B1 RNA with U29C, C31U
DNA 1: CAATCTGAATTCCGGTCTCCC
DNA 2: TGGTGGCTACGACGGGATT
B13: GACCCGA (DNA:RNA)
RNA: B3 RNA with G26A, G28C, A29C, A30G, U31A
DNA 1: CAATCTGAATTCCGGTCTCCC
DNA 2: TGGTGGCTACGACGGGATT
B14: AAUCUAG (DNA:RNA)
RNA: B1 RNA with U25A, U26A, G27U, U30A, C31G
DNA 1: CAATCTGAATTCCGGTCTCCC
DNA 2: TGGTGGCTACGACGGGATT
B15: GGACUAC (DNA:RNA)
RNA: B3 RNA with C27A, G28C, A29U, U31C
DNA 1: CAATCTGAATTCCGGTCTCCC
DNA 2: TGGTGGCTACGACGGGATT
B16: AGUCUUU (DNA:RNA)
RNA: B1 RNA with U25A, U26G, G27U, C31U
DNA 1: CAATCTGAATTCCGGTCTCCC
DNA 2: TGGTGGCTACGACGGGATT
B17: CGGCGAU (DNA:RNA)
RNA: B3 RNA with G25C, C27G, G28C, A29G
DNA 1: CAATCTGAATTCCGGTCTCCC
DNA 2: TGGTGGCTACGACGGGATT
B18: UCUAGUC (DNA:RNA)
RNA: B1 RNA with U26C, G27U, C28A, U29G
DNA 1: CAATCTGAATTCCGGTCTCCC
DNA 2: TGGTGGCTACGACGGGATT
B19: AGGAUUC (DNA:RNA)
RNA: B1 RNA with U25A, U26G, C28A
DNA 1: CAATCTGAATTCCGGTCTCCC
DNA 2: TGGTGGCTACGACGGGATT
B20: AUUGGAA (DNA:RNA)
RNA: B3 RNA with G25A, G26U, C27U, A29G, U31A
DNA 1: CAATCTGAATTCCGGTCTCCC
DNA 2: TGGTGGCTACGACGGGATT

What follows are binders tested against T1, RBFOX1 RRM (assay: EMSA; HiTS-Eq, 1 nM pool, 10 min; buffer printed only for the single-RNA assays: 10 mM Tris pH 7.5, 150 mM NaCl, 3.4 mM EDTA, 0.001% NP-40, 30 C). Details: tags: His6 N-terminal (pET28a); label: 5' 32P.
In short: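 Relative association constants, normalised to the cognate motif, were derived by comparing read counts of each RNA species with those of the control reaction. The RNA sequenced was the free fraction, separated by 8% native PAGE after a 10 min equilibration in 50 µL of 1 nM 5′-radiolabelled RNA (7 randomized nucleotides) with increasing concentrations of purified wild-type or mutant RbFox RRM.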

| Binder | binding signal |
| --- | --- |
| B1 | 0.0244 KA relative to UGCAUGU |
| B2 | 0.0142 KA relative to UGCAUGU |
| B3 | 0.0131 KA relative to UGCAUGU |
| B4 | 0.0187 KA relative to UGCAUGU |
| B5 | 0.0118 KA relative to UGCAUGU |
| B6 | 0.000381 KA relative to UGCAUGU |
| B7 | 0.0111 KA relative to UGCAUGU |
| B8 | 0.0109 KA relative to UGCAUGU |
| B9 | 0.0239 KA relative to UGCAUGU |
| B10 | 0.0107 KA relative to UGCAUGU |
| B11 | 0.0106 KA relative to UGCAUGU |
| B12 | 0.0139 KA relative to UGCAUGU |
| B13 | 0.00835 KA relative to UGCAUGU |
| B14 | 0.00429 KA relative to UGCAUGU |
| B15 | 0.0184 KA relative to UGCAUGU |
| B16 | 0.0108 KA relative to UGCAUGU |
| B17 | 0.014 KA relative to UGCAUGU |
| B18 | 0.00964 KA relative to UGCAUGU |
| B19 | 0.0164 KA relative to UGCAUGU |
| B20 | 0.00344 KA relative to UGCAUGU |

Reference: paper PMC9911399, “Two distinct binding modes provide the RNA-binding protein RbFox with extraordinary sequence specificity”
